Columns and labels:
Assay in all cases: TAP + mass spectrometry, HEK293 cells
FBXO18 = target: T1, FBXO18 (Homo sapiens (Human), UniProt Q8NFZ0 1-1043)
T1 construct: TAP-MS bait
T1 sequence: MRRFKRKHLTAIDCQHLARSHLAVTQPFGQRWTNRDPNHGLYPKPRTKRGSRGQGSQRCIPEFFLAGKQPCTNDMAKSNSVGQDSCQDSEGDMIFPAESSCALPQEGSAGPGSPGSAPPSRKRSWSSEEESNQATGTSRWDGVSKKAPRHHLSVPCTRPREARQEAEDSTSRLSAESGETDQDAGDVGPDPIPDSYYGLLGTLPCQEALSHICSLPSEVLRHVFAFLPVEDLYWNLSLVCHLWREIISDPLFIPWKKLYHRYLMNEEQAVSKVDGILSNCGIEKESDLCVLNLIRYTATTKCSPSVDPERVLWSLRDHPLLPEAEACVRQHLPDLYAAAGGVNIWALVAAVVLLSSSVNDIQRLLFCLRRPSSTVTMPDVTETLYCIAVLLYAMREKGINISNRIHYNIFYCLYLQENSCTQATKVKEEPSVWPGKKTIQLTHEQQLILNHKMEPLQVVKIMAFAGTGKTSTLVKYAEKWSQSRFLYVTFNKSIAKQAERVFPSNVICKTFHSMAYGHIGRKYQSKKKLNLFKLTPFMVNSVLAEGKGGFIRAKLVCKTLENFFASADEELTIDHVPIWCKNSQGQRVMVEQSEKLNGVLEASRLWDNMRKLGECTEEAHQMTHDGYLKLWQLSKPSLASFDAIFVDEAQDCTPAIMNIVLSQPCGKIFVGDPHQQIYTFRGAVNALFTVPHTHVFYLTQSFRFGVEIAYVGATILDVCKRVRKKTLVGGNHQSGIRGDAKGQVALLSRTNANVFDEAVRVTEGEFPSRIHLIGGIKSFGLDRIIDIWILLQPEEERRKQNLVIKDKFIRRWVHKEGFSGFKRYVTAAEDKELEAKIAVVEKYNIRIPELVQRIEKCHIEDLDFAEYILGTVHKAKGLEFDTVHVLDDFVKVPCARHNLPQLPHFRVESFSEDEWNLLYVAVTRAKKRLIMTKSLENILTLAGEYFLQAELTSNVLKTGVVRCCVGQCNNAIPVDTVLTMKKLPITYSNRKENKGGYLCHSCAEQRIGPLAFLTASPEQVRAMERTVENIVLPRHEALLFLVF

USP47 = target: T2, USP47 (Homo sapiens (Human), UniProt Q96K76 1-1375)
T2 construct: TAP-MS bait
T2 sequence: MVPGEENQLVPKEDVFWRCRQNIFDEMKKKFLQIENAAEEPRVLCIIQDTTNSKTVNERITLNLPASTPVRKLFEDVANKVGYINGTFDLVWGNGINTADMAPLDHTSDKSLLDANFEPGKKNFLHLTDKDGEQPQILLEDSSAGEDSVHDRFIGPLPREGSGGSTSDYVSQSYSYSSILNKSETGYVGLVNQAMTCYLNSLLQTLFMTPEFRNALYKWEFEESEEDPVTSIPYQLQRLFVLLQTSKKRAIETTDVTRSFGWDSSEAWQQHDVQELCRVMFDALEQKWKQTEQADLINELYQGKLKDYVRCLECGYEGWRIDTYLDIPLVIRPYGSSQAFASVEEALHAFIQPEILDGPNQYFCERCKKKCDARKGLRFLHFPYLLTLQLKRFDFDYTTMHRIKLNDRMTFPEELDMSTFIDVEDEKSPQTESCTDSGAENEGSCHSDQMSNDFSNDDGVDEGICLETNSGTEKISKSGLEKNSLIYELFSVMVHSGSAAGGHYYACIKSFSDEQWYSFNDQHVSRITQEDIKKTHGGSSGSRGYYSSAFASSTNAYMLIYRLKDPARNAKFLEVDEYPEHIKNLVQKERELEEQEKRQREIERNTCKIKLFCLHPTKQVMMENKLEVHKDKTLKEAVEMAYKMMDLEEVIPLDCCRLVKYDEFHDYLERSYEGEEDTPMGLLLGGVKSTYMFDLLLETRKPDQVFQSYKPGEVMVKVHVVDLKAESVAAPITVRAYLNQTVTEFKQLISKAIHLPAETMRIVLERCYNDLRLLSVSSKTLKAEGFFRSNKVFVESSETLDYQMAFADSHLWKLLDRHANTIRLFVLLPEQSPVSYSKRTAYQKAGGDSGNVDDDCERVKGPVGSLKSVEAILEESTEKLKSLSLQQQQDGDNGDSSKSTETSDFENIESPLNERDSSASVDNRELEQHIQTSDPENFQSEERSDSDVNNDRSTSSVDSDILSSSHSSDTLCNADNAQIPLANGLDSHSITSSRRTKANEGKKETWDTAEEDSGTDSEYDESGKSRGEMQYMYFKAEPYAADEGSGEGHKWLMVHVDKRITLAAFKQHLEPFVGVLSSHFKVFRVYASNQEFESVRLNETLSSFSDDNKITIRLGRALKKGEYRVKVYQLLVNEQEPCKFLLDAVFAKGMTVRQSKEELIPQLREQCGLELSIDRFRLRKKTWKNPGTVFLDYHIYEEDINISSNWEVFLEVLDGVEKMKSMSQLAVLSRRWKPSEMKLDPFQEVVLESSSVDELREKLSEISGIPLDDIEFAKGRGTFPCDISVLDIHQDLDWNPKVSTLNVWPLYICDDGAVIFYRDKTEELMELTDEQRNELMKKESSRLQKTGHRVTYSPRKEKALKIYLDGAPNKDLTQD

PER2 = target: T3, PER2 (Homo sapiens (Human), UniProt O15055 1-1255)
T3 construct: TAP-MS bait
T3 sequence: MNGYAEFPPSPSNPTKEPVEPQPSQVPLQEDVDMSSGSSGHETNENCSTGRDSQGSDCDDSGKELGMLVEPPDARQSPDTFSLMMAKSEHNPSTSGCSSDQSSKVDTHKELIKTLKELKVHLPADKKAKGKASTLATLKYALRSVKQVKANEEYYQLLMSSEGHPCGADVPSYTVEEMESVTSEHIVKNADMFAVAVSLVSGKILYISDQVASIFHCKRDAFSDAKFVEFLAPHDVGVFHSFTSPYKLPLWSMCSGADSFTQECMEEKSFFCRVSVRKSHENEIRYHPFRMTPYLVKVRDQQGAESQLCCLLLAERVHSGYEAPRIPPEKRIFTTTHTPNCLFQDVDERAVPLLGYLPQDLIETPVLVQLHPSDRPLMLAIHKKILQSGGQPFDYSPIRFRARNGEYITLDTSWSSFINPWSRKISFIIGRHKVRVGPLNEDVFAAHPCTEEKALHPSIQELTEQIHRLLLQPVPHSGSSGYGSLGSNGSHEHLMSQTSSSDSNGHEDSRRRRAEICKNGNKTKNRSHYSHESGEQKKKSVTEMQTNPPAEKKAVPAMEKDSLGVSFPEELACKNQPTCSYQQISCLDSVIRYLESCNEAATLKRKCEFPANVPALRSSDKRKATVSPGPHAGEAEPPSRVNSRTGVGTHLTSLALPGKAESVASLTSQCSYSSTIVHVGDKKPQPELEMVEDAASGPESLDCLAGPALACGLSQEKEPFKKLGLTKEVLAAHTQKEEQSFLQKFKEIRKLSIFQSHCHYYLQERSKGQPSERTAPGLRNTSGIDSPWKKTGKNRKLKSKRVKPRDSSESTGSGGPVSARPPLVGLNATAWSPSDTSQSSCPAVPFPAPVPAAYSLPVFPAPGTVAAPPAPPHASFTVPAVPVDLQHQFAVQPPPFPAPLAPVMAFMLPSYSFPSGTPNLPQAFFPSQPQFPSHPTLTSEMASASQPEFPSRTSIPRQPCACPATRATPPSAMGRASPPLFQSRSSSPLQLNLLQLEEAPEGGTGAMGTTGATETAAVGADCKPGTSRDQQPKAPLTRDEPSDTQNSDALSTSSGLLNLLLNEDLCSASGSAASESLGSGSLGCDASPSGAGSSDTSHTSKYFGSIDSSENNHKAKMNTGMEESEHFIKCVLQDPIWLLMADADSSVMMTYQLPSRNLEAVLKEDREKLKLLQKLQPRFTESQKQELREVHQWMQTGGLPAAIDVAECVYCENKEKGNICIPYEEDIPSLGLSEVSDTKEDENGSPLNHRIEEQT

binding result (FBXO18): no binding
binding result (USP47): no binding
binding result (PER2): no binding
B1: Lgr4 (endogenous, or expression construct whose tag is not stated) (receptor)
chain: not shown
notes: whole, on cells; Endogenous protein of HEK293T / LS174T cells in TAP-MS; also called endogenous Lgr4
